Results reported in the antibiotic and cytotoxicity screens of Wong et al. (2023).
The other results are listed elsewhere or left out.

Key:
[1] = tested on: HSkMC (human skeletal muscle cells); assay: cytotoxicity call (relative viability < 0.9); settings: 10 µM
[2] = tested on: HepG2; assay: cytotoxicity call (relative viability < 0.9); settings: 10 µM
[3] = tested on: S. aureus RN4220; assay: growth inhibition call (relative growth <= 0.2); settings: 50 µM

Compound	cytotoxicity call [1]	cytotoxicity call [2]	growth inhibition call [3]
C[C@@H]1CN([C@H](C)CO)C(=O)Cc2cc(NC(=O)Nc3ccc(C(F)(F)F)cc3)ccc2O[C@H]1CN(C)Cc1ccc2c(c1)OCO2	inactive	inactive	inactive
C[C@H](CO)N1C[C@H](C)[C@H](CN(C)C(=O)Nc2ccccc2)OCCCC[C@H](C)Oc2ccc(NC(=O)Cc3ccccc3)cc2C1=O	inactive	inactive	inactive
CCCNC(=O)Nc1ccc2c(c1)C(=O)N(C)C[C@H](OC)[C@H](C)CN(Cc1ccc(-c3ccccn3)cc1)[C@H](C)CO2	inactive	inactive	inactive
C[C@H](CO)N1C[C@H](C)[C@H](CN(C)S(C)(=O)=O)Oc2ccc(N(C)C)cc2C1=O	inactive	inactive	inactive
C[C@@H]1CN([C@H](C)CO)C(=O)c2cc(NC(=O)CCCN(C)C)ccc2O[C@@H]1CN(C)Cc1ccncc1	inactive	inactive	inactive
C[C@H]1CN([C@@H](C)CO)C(=O)CCCn2nncc2CO[C@H]1CN(C)C(=O)Nc1ccc(N2CCCCC2)cc1	inactive	inactive	inactive
C[C@H](CO)N1C[C@H](C)[C@@H](CN(C)C(=O)Nc2ccc(C(F)(F)F)cc2)Oc2ccc(NC(=O)NC3CCCCC3)cc2CC1=O	inactive	inactive	inactive
C[C@@H]1CN([C@@H](C)CO)C(=O)c2cccc(NC(=O)c3nc4ccccc4s3)c2O[C@H]1CN(C)CC1CCCCC1	inactive	inactive	inactive
C[C@@H]1CCCCO[C@@H](CN(C)S(=O)(=O)c2cccs2)[C@H](C)CN([C@@H](C)CO)C(=O)c2cc(NC(=O)Nc3cccc4ccccc34)ccc2O1	inactive	inactive	inactive
Cn1cnc(S(=O)(=O)N2C[C@@H](O)COC[C@@H]3O[C@H](CC(=O)NCc4cccc(F)c4)CC[C@H]32)c1	inactive	inactive	inactive
CN(C)C(=O)c1ccc(-c2cccc(-c3nc(C(=O)NC4CCCC4)cc4c3[C@@H](CCO)N([S@](=O)C(C)(C)C)C4)c2)cc1	inactive	inactive	inactive
COC(=O)C[C@H]1CC[C@@H]2[C@H](COC[C@@H](O)CN2S(=O)(=O)c2ccccc2C)O1	inactive	inactive	inactive
COc1ccc(C#Cc2ccc3c(c2)O[C@@H](CN(C)S(=O)(=O)c2ccccc2F)[C@H](C)CN([C@H](C)CO)S3(=O)=O)cc1	inactive	inactive	inactive
C[C@@H]1CCCCO[C@@H](CN(C)C(=O)Nc2cccc3ccccc23)[C@@H](C)CN([C@H](C)CO)C(=O)c2cc(NC(=O)CCCCCC(=O)Nc3ccccc3N)ccc2O1	inactive	inactive	inactive
CC[C@@H](C)CCCC(=O)N[C@@H](CCN)C(=O)N[C@H](C(=O)N[C@@H](CCN)C(=O)N[C@H]1CCNC(=O)[C@H]([C@@H](C)O)NC(=O)[C@H](CCN)NC(=O)[C@H](CCN)NC(=O)[C@H](CC(C)C)NC(=O)[C@@H](CC(C)C)NC(=O)[C@H](CCN)NC1=O)[C@@H](C)O	inactive	inactive	inactive
O=C(O)CCCCC(=O)O	inactive	inactive	inactive
C[C@H](CO)N1C[C@H](C)[C@H](CN(C)C(=O)Cc2ccccc2)OCCCC[C@H](C)Oc2ccc(NC(=O)c3ccccc3)cc2C1=O	inactive	inactive	inactive
C[C@H]1CN([C@@H](C)CO)C(=O)c2ccccc2-c2ccccc2CO[C@H]1CN(C)C(=O)Nc1ccccc1C(F)(F)F	inactive	inactive	inactive
C[C@@H]1CCCCO[C@H](CN(C)C(=O)CCC(F)(F)F)[C@@H](C)CN([C@H](C)CO)C(=O)c2cc(NC(=O)Nc3ccc4c(c3)OCO4)ccc2O1	inactive	inactive	inactive
COc1ccc(S(=O)(=O)Nc2ccc3c(c2)CC(=O)N([C@@H](C)CO)C[C@@H](C)[C@H](CN(C)S(=O)(=O)c2ccc(F)cc2)O3)cc1	inactive	inactive	inactive
N[C@@H](CCc1ccccc1Cl)c1ccc2c(c1)OCCO2	inactive	active	inactive
C[C@H](CO)N1C[C@H](C)[C@H](CN(C)S(C)(=O)=O)Oc2ccc(NS(=O)(=O)c3cn(C)cn3)cc2CC1=O	inactive	inactive	inactive
N[C@@H](Cc1ccc2nonc2c1)C(=O)O	inactive	inactive	inactive
COc1ccc(S(=O)(=O)Nc2ccc3c(c2)C(=O)N([C@H](C)CO)C[C@@H](C)[C@H](CN(C)Cc2ccc(Cl)c(Cl)c2)OCCCC[C@H](C)O3)cc1	active	active	inactive
Cc1noc(C)c1NC(=O)N(C)C[C@@H]1OCCCC[C@H](C)Oc2ccc(NS(=O)(=O)c3cccs3)cc2C(=O)N([C@@H](C)CO)C[C@@H]1C	inactive	inactive	inactive
COC1=C(OC)C(=O)C(CC=C(C)CCC=C(C)CCC=C(C)CCC=C(C)CCC=C(C)CCC=C(C)CCC=C(C)CCC=C(C)CCC=C(C)CCC=C(C)C)=C(C)C1=O	inactive	inactive	inactive
